For 20 molecules, binding signal results are on record in paper PMC9911399, “Two distinct binding modes provide the RNA-binding protein RbFox with extraordinary sequence specificity”.

Sequences and labels used below:
T1: RBFOX1 RRM (Homo sapiens, UniProt Q9NWB1 109-208)
T1 sequence: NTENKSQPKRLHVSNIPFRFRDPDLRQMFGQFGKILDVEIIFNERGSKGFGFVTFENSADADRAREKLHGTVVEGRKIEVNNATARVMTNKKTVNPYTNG

B1: AUGUGGG (DNA:RNA)
RNA: GGGAGACCGGAAUUCAGAUUGUCCAUGUGGGUUAAAUCCCGUCGUAGCCACCA
DNA 1: CAATCTGAATTCCGGTCTCCC
DNA 2: TGGTGGCTACGACGGGATT
B2: UGAUAUG (DNA:RNA)
RNA: B1 RNA with A25U, U26G, G27A, G29A, G30U
DNA 1: CAATCTGAATTCCGGTCTCCC
DNA 2: TGGTGGCTACGACGGGATT
B3: ACUGCGU (DNA:RNA)
RNA: B1 RNA with U26C, G27U, U28G, G29C, G31U
DNA 1: CAATCTGAATTCCGGTCTCCC
DNA 2: TGGTGGCTACGACGGGATT
B4: CCAUUCG (DNA:RNA)
RNA: B1 RNA with A25C, U26C, G27A, G29U, G30C
DNA 1: CAATCTGAATTCCGGTCTCCC
DNA 2: TGGTGGCTACGACGGGATT
B5: UAGCUCU (DNA:RNA)
RNA: B1 RNA with A25U, U26A, U28C, G29U, G30C, G31U
DNA 1: CAATCTGAATTCCGGTCTCCC
DNA 2: TGGTGGCTACGACGGGATT
B6: CGGAUCU (DNA:RNA)
RNA: B1 RNA with A25C, U26G, U28A, G29U, G30C, G31U
DNA 1: CAATCTGAATTCCGGTCTCCC
DNA 2: TGGTGGCTACGACGGGATT
B7: UUUGAGU (DNA:RNA)
RNA: B1 RNA with A25U, G27U, U28G, G29A, G31U
DNA 1: CAATCTGAATTCCGGTCTCCC
DNA 2: TGGTGGCTACGACGGGATT
B8: AUGGAGG (DNA:RNA)
RNA: B1 RNA with U28G, G29A
DNA 1: CAATCTGAATTCCGGTCTCCC
DNA 2: TGGTGGCTACGACGGGATT
B9: GCUAGUA (DNA:RNA)
RNA: B1 RNA with A25G, U26C, G27U, U28A, G30U, G31A
DNA 1: CAATCTGAATTCCGGTCTCCC
DNA 2: TGGTGGCTACGACGGGATT
B10: AUCCCAA (DNA:RNA)
RNA: B1 RNA with G27C, U28C, G29C, G30A, G31A
DNA 1: CAATCTGAATTCCGGTCTCCC
DNA 2: TGGTGGCTACGACGGGATT
B11: UGUACAA (DNA:RNA)
RNA: GGGAGACCGGAAUUCAGAUUGUCCUGUACAAUUAAAUCCCGUCGUAGCCACCA
DNA 1: CAATCTGAATTCCGGTCTCCC
DNA 2: TGGTGGCTACGACGGGATT
B12: GUGAGAA (DNA:RNA)
RNA: B1 RNA with A25G, U28A, G30A, G31A
DNA 1: CAATCTGAATTCCGGTCTCCC
DNA 2: TGGTGGCTACGACGGGATT
B13: CCCGGAC (DNA:RNA)
RNA: B1 RNA with A25C, U26C, G27C, U28G, G30A, G31C
DNA 1: CAATCTGAATTCCGGTCTCCC
DNA 2: TGGTGGCTACGACGGGATT
B14: AUUCCCU (DNA:RNA)
RNA: B1 RNA with G27U, U28C, G29C, G30C, G31U
DNA 1: CAATCTGAATTCCGGTCTCCC
DNA 2: TGGTGGCTACGACGGGATT
B15: UUGGAGC (DNA:RNA)
RNA: B1 RNA with A25U, U28G, G29A, G31C
DNA 1: CAATCTGAATTCCGGTCTCCC
DNA 2: TGGTGGCTACGACGGGATT
B16: CCUGGGU (DNA:RNA)
RNA: B1 RNA with A25C, U26C, G27U, U28G, G31U
DNA 1: CAATCTGAATTCCGGTCTCCC
DNA 2: TGGTGGCTACGACGGGATT
B17: CAGCCCA (DNA:RNA)
RNA: B11 RNA with U25C, G26A, U27G, A28C, A30C
DNA 1: CAATCTGAATTCCGGTCTCCC
DNA 2: TGGTGGCTACGACGGGATT
B18: UCAUAUA (DNA:RNA)
RNA: B11 RNA with G26C, U27A, A28U, C29A, A30U
DNA 1: CAATCTGAATTCCGGTCTCCC
DNA 2: TGGTGGCTACGACGGGATT
B19: CUAGGUG (DNA:RNA)
RNA: B1 RNA with A25C, G27A, U28G, G30U
DNA 1: CAATCTGAATTCCGGTCTCCC
DNA 2: TGGTGGCTACGACGGGATT
B20: CGGUAAU (DNA:RNA)
RNA: B1 RNA with A25C, U26G, G29A, G30A, G31U
DNA 1: CAATCTGAATTCCGGTCTCCC
DNA 2: TGGTGGCTACGACGGGATT

Substitutions are numbered along the chain they refer to; changes in the protein carry UniProt numbers. The list shows a part of the results.

For this assay, the target named is T1, RBFOX1 RRM. Nature of the assay: EMSA; HiTS-Eq, 1 nM pool, 10 min; buffer printed only for the single-RNA assays: 10 mM Tris pH 7.5, 150 mM NaCl, 3.4 mM EDTA, 0.001% NP-40, 30 C. As to conditions: tags: His6 N-terminal (pET28a); label: 5' 32P. In short, it runs like this:
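Purified RbFox RRM, wild type or mutant, was incubated for 10 min in 50 µL with 1 nM of a 5′-radiolabelled RNA pool carrying 7 randomized nucleotides, whose flanks were annealed to DNA oligonucleotides, over a series of increasing protein concentrations. Unbound RNA was resolved on 8% native PAGE, cut out, reverse-transcribed, barcoded by PCR and sequenced on an Illumina HiSeq 2500. Relative association constants were derived from changes in read counts for each RNA species versus the control reaction and normalised to the cognate motif.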
Turning to B1, the binding signal was 0.00956 KA relative to UGCAUGU. The value for B2 was 0.0174 KA relative to UGCAUGU; that for B3 was 0.0105 KA relative to UGCAUGU.

In the case of B4, the binding signal was 0.00798 KA relative to UGCAUGU. The value for B5 was 0.0138 KA relative to UGCAUGU; that for B6 was 0.0232 KA relative to UGCAUGU; that for B7 was 0.0173 KA relative to UGCAUGU. In the case of B8 it was 0.0135 KA relative to UGCAUGU; in that of B9, 0.0137 KA relative to UGCAUGU; in that of B10, 0.00187 KA relative to UGCAUGU.

As for B11, the binding signal is 0.0102 KA relative to UGCAUGU.

As to B12, the binding signal is 0.015 KA relative to UGCAUGU.

Take B13: the binding signal was 0.00558 KA relative to UGCAUGU. In the case of B14 it was 0.0014 KA relative to UGCAUGU; in that of B15, 0.0134 KA relative to UGCAUGU; in that of B16, 0.0115 KA relative to UGCAUGU. Turning to B17, the binding signal was 0.00257 KA relative to UGCAUGU. In the case of B18 it was 0.00295 KA relative to UGCAUGU; in that of B19, 0.0181 KA relative to UGCAUGU; in that of B20, 0.0103 KA relative to UGCAUGU.
